Where “and” joins values, the source holds several entries; their conditions need not be identical. Identical values can stand only once. This is one part of the list. Most values come without repeats; read them as rough.
Key:
[1] = test system: hiPSC-derived cardiomyocytes; experiment: time to death of most cells in well after compound addition (days); higher = less cardiotoxic; conditions: screen: 1; 10 µM
[2] = test system: hiPSC-derived cardiomyocytes; experiment: time to death of most cells in well after compound addition (days); higher = less cardiotoxic; extreme values may be limits of the assay; conditions: 10 µM

| Compound | time to death of most cells in well [1] | time to death of most cells in well ([2]; screen: 2) | time to death of most cells in well ([2]; screen: 3) | time to death of most cells in well ([2]; screen: 4) |
| --- | --- | --- | --- | --- |
| O=C(/C=C/c1ccc2ccccc2n1)c1ccncc1 | 3 | 0.5 | 0.5 | 0.5 |
| CC1(COc2ccc3c(c2)ncn3-c2ccc3cccc(N4CCC(N)CC4)c3n2)COC1 | > 7 | 6.5 | 2 | 3.5 |
| O=c1cc(-c2ccccc2)oc2c(O)c(O)ccc12 [7,8-Dihydroxyflavone] | > 7 | > 7 | > 7 | > 7 |
| CC[C@H](Nc1ncnc2[nH]cnc12)c1nc2cccc(F)c2c(=O)n1-c1ccccc1 [Idelalisib (CAL-101, GS-1101)] | > 7 | > 7 | > 7 | > 7 |
| CNC(=O)c1cc(Oc2ccc(NC(=O)Nc3ccc(Cl)c(C(F)(F)F)c3)cc2)ccn1 [Sorafenib] | 5.5 | 3 | 4.5 | > 7 |
| C[C@@H]1CCN(C(=O)CC#N)C[C@@H]1N(C)c1ncnc2[nH]ccc12 | 3.5 and > 7 |  | > 7 | > 7 |
| COc1cc(Nc2ncc(F)c(Nc3ccc4c(n3)NC(=O)C(C)(C)O4)n2)cc(OC)c1OC | 6 | 6.5 | > 7 | > 7 |
| O=c1cc(-c2cccc3c2Sc2ccccc2S3)oc(N2CCOCC2)c1 | > 7 | 1.5 | > 7 | > 7 |
| CN(C)CCOc1ccc(-c2nc(-c3ccncc3)c(-c3ccc4c(c3)CC/C4=N\O)[nH]2)cc1 | 0.5 | 0.5 | 0 | 0.5 |
| CN1CCN(c2ccc(Nc3cc(-c4cccc(-n5ccc6cc(C7CC7)cc(F)c6c5=O)c4CO)cn(C)c3=O)nc2)CC1 | 1 | 4 | > 7 | > 7 |
| Cc1ccccc1-n1c(Cn2ncc3c(N)ncnc32)nc2cccc(C)c2c1=O | > 7 | > 7 | > 7 | > 7 |
| CS(=O)(=O)CCNCc1ccc(-c2ccc3ncnc(Nc4ccc(OCc5cccc(F)c5)c(Cl)c4)c3c2)o1 [Lapatinib] | > 7 | > 7 | > 7 | > 7 |
| O=C1NC(=O)C(c2cnc3ccccn23)=C1c1cn2c3c(cc(F)cc13)CN(C(=O)N1CCCCC1)CC2 | 0 | 5.5 | > 7 | 5.5 |
| C#Cc1cccc(Nc2ncnc3cc(OCCOC)c(OCCO)cc23)c1 | > 7 | > 7 | > 7 | > 7 |
| COc1cc(Nc2ncc3c(n2)-c2ccc(Cl)cc2C(c2c(F)cccc2OC)=NC3)ccc1C(=O)O [Alisertib (MLN8237)] | > 7 | > 7 | > 7 | > 7 |
| COc1cc(CCc2cc(NC(=O)c3ccc(N4CC(C)NC(C)C4)cc3)n[nH]2)cc(OC)c1 (centres undefined) | > 7 | > 7 | > 7 | 5 |
| COc1cccc2cc(-c3nc([C@H]4CC[C@H](C(=O)O)CC4)n4ncnc(N)c34)[nH]c12 | > 7 | 4 | > 7 | > 7 |
| Nc1nc(N)c2nc(-c3cccc(O)c3)c(-c3cccc(O)c3)nc2n1 | 2.5 | 2 | 3.5 | > 7 |
| COc1cc2c(Oc3ccc(NC(=O)C4(C(=O)Nc5ccc(F)cc5)CC4)cc3F)ccnc2cc1OCCCN1CCOCC1 | 4 | 3 | 6 | 3.5 |
| CCCCCCCCCCCCc1ccc(S(=O)(=O)Nc2nncs2)cc1 | > 7 | > 7 | > 7 | > 7 |
| CNC(=O)c1cc(Oc2ccc(NC(=O)Nc3ccc(Cl)c(C(F)(F)F)c3)c(F)c2)ccn1 [Regorafenib (BAY 73-4506)] | > 7 | 3 | 6 | > 7 |
| NC(=O)c1ncn([C@@H]2O[C@H](CO)[C@@H](O)[C@H]2O)c1N [AICAR (Acadesine)] | 6.5 | > 7 | > 7 | > 7 |
| N#Cc1c(NC(=O)c2cccc3ccccc23)sc2c1CCCC2 [JNK Inhibitor IX] | 3 | 2 | 3.5 | > 7 |
| NC1(c2ccc(-c3nc4ccn5c(=O)[nH]nc5c4cc3-c3ccccc3)cc2)CCC1 | 1 | 1 | > 7 | 1.5 |
| Cc1[nH]c(/C=C2\C(=O)Nc3ccc(S(=O)(=O)Cc4c(Cl)cccc4Cl)cc32)c(C)c1C(=O)N1CCC[C@@H]1CN1CCCC1 | 3 | 2 | 0.5 | 5 |

From the supplement of paper PMC6828730
